From the supplement of paper PMC10126150
Values marked as one replicate rest on one cluster of the flow cell; about a third of the high ones do not repeat.

Tested on: ATP
Assay: switch fluorescence ratio, 500 uM ATP over buffer (Cy3 cluster intensity, sum of 5 cycles each) (fold (ratio)); higher = stronger signal-on switching upon ATP binding; sequences stand for … in TCGTCGGCAGCGTCAGATGTGTATAAGAGACAGTTTTTTTTTTTTTTTTTTTTTTTTT…TC
Conditions: aptamer strand: ATP DNA aptamer (quencher-CACCTGGGGGAGTATTGCGGAGGAAGG + anchor), 100 nM annealed; ATP concentration: 500 uM; one replicate
Outline: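 The fluorescence ratio divides summed target-cycle Cy3 intensity by summed buffer-cycle Cy3 intensity for each cluster and is averaged per switch-domain sequence. Cy3-labelled switching-strand clusters on a modified Illumina MiSeq flow-cell were annealed to 100 nM quencher-labelled ATP aptamer, then imaged in selection buffer and again after 15 min with 500 uM ATP at 22 °C. Five such cycles were run, with NaOH stripping and re-annealing between them, and clusters outside 100-1000 RFU were excluded.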
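Also: ATP exposure 15 min at 22 °C before imaging.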

Sequence | switch fluorescence ratio
CTCAAGGTCG | 0.982
CCACGGATGT | 1.04
GTAATATTGA | 1.01
CTTGTATGA | 0.968
AAGTGAGTTA | 0.974
AACATGGCGA | 1.01
GACATGGAGC | 1.05
CGTTTTTTAA | 1.03
GACGGTGTGG | 1.03
TCGTGACGCC | 1.01
CCGTTACCTT | 1.14
ATTCATGCGA | 1.01
ACGCTTTGAA | 1.03
ACGTTACTAA | 1.33
GGCATTGCTT | 0.988
TGCGGTGTAC | 1.27
AAGAACCGTA | 0.94
AGTAAGCGCA | 0.998
AAGTTACGCC | 1.04
GTAGATAGTC | 0.995
AAGGCTGGTA | 0.987
TCAACATTT | 0.977
TGTTCGAGTT | 0.949

Sequence | switch fluorescence ratio
CACTTATCCT | 1.09
GACGCAGATG | 1.37
GGTCCCCA | 0.998
TTTATCGTAG | 1.03
GTGTGACACA | 0.961
ACGGGTTAAA | 1.01
GATAACTCGA | 0.999
TTTACCAACA | 1.09
TAATTGGTC | 1.03
TGTGAGATGC | 0.937
TATGCTACCC | 1.21
TATAATTGG | 0.994
TGGTTATCAA | 0.999
GTCATTAGTG | 1.01
ACTGTGTAC | 1.06
GAATAAGTCG | 0.981
GATGTTGGGT | 1.01
GGGCCAGTAG | 1
ACCGGGTTG | 0.998
TCCTCCTATT | 1.44
CGGGTAGCCC | 1.02
GGCCATATTG | 1.04
TAAAGTCACA | 1.05

Sequence | switch fluorescence ratio
TTAGTTCCTG | 0.99
GGAGGAGAGT | 1.03
TAGTGCACGC | 0.977
ATGAATCTTT | 0.992
CGATGAGTGT | 0.981
GCTCCATGAC | 2.42
TACTCTTTAA | 0.984
CCACCTTCGA | 1.2
GTTTCAGCTA | 1.6
TTATTCGCAG | 1.07
TACGAGATTA | 1.03
ACCCCCCTTA | 1.21
CGTATCGTCG | 0.968
GTGGAAAAAC | 1.02
TGTGCTTTGG | 1
ACAACAATTA | 1.02
GTTCTATGGG | 0.967
AGGAGGGATC | 1.01
CCCCAAGTTC | 1.16
CAGGCCCTG | 0.993
GAAATAGCGA | 1.05
ATTATTCTTA | 1.02
TCGCGAGGCG | 1.01

Sequence | switch fluorescence ratio
CATCTTTTAT | 1
CATTTCTTTC | 1.02
AGCCTATCGT | 0.972
CGGATAGCT | 0.989
GGAGGATAGG | 1.05
TAAACGAATA | 1.01
AAAAAAGTAT | 1.06
CAGTTTCCGG | 1.02
ATGGAGTTT | 1
AATTTCGTC | 0.94
CCTTCGTTTG | 1.45
TGCTCTCCTT | 1.25
TTTTGCTAAG | 0.963
TCCCTTTTGA | 1
TCGACAATCG | 1.05
CCATTAGCCA | 1.08
ATGGTCCGC | 1.2
GGCTTAGAGG | 1
ATAGAGGTA | 1
TGCTAGTGCG | 1.01
CAGCTCGGGG | 0.986
AATAGTTAGC | 0.97
TCGTGGCAGC | 1.01

Sequence | switch fluorescence ratio
TCCCTGAAGG | 0.98
AAGTATGAAC | 0.98
TTGAACCAGA | 0.984
GAATCTTCTG | 1.09
CCCTTTCGGC | 1.03
ATGACGAACG | 1.15
ACTTGCGTTA | 1.03
TGGAGTGGT | 0.978
TCTCGTTCGC | 1.07
CTTTTGTGCG | 0.993
CTCGGTTGT | 0.968
CTACGTTCCT | 1.44
TTTCGGCGGA | 0.965
CCCCCAAAAT | 1.61
AGAGTTCCGT | 0.995
CAGGTCACTT | 1.04
TATTTGATGA | 1
CGACTGAATA | 1.08
CGTACTATGG | 1.12
TCCTCGTAGT | 1.5
GAGGTCG | 1.01
TGTGTCACG | 1.01
CATGGGTTTC | 0.98

Sequence | switch fluorescence ratio
TGTTAATTAT | 1.01
GTTTAAATT | 0.957
CGTAAACCAG | 1
AAAAGGTCCG | 0.968
CAGTCTCTTC | 1.02
ATGATTTCCC | 1.09
GACATGTAGC | 1
CTAGCCAAGT | 1
TCTCCCAGGG | 1.16
ATAGCTGTTT | 1.04
AACTGACACA | 1.16
TGTTTACTGT | 1.04
GTGAATGCGC | 1.02
CGGCTTTCGT | 0.983
AATGGCCACA | 0.997
GGTCGAGCGT | 1.02
AGTGCTCCGA | 1.07
AATCACCCCG | 1.1
ATGATCGTTG | 1.02
CAGAGTTCTT | 0.994
TGGTCGAGGA | 1.02
CCGCCTTTAT | 2.14
AGGGCAAAGC | 0.983

Sequence | switch fluorescence ratio
GACTCCGGT | 1.62
CCATGATTG | 1.02
CTCGTTCAGA | 1.01
CATGGCTCTG | 1.03
TACTTCTGAA | 1.03
GGAGGGACAA | 1.01
CTGTCGGTGC | 1.08
TCGTACCCGT | 0.982
CCAGACTCTC | 1.08
CGATGTCGCC | 1
ACACAAAGTA | 1.06
ATTCGAAGGG | 0.977
ACGCTCTATT | 1.02
CATCGTAACT | 1.06
GGTTGGGTAT | 0.993
CCGGCGGTAT | 1.12
GTCGCGAGAG | 1.12
TCCTATCTAG | 0.986
GTTTCATGCA | 0.987
ACGCGAGTAA | 1.02
